The whole screen tested about 310,000 compounds, of which about 2,200 (0.71%) showed an effect of 50% or more. Effects have a minus sign here. Some of the results follow.
Biological target: human ether-à-go-go-related gene (hERG) potassium channel (human, UniProt Q12809)
Experiment: primary screen, population patch clamp on CHO cells stably expressing hERG

Chain of human ether-à-go-go-related gene (hERG) potassium channel (Q12809 whole entry, looked up): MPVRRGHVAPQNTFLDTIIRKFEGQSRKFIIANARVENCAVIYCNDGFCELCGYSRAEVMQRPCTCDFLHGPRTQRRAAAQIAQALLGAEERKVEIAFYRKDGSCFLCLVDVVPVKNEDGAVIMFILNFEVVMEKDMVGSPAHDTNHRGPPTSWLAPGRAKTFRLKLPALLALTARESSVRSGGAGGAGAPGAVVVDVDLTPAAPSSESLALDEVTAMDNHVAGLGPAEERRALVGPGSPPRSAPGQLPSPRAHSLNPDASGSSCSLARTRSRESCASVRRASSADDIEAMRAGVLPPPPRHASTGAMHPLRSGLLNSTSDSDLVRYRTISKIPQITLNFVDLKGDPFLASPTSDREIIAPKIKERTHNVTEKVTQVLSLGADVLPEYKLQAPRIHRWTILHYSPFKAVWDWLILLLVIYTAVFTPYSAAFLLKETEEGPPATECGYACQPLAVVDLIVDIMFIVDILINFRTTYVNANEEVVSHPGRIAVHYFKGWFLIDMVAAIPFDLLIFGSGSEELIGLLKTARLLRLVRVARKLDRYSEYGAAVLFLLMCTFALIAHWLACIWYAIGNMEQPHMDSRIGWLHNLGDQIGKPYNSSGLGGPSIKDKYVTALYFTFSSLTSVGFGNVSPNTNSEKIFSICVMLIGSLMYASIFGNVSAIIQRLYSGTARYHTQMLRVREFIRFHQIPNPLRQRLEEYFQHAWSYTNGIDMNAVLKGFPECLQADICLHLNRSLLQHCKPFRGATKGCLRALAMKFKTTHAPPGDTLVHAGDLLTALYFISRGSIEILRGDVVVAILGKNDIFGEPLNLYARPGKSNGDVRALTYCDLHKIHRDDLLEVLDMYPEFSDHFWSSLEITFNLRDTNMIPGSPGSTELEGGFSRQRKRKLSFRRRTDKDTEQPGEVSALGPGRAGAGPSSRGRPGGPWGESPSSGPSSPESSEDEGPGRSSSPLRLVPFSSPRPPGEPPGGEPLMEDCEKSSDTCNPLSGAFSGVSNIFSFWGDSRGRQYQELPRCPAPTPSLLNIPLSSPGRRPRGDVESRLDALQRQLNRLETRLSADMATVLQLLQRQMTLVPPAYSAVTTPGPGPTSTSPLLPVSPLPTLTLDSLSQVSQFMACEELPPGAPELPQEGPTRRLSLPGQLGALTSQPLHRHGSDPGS

Structure (SMILES)	hERG current change (%, negative = inhibition) at 1uM
COCCn1c(C)cc(C(=O)CSc2nc(C)cc(C)c2C#N)c1C	7.02%
CCCCS(=O)(=O)N1CCCC(C(=O)N2CCOCC2)C1 (stereo not drawn)	13.5%
Cc1ccc(SCC(=O)N2CCCC2)cc1	-7.53%
O=C(CSc1nnc(-c2ccccn2)n1Cc1ccccc1)Nc1ccc2c(c1)OCO2	7.03%
FC(F)(F)c1ccccc1NC(=S)Nc1ccccc1	14.5%
CCOc1ccc(OCCC(=O)OCC(=O)NCc2ccccc2)cc1	11.1%
CC(C)(C)OC(=O)N1Cc2ccccc2C[C@H]1C(=O)NCC(=O)NCC1CCCO1 (stereo partly drawn)	9.77%
O=C(COc1cccc2cccnc12)Nc1ccccc1N1CCOCC1	-10.4%
CN1CCC(N(C)C(=S)NC(=O)c2cc(-c3cccc(Br)c3)nc3ccccc23)CC1	16.5%
CC(C)C(=O)Nc1ccc(Cc2ccc(NC(=O)C(C)C)c(O)c2)cc1O	4.54%
COc1ccc(CNC(=O)CN2C(=O)NC(C)(c3cccc4ccccc34)C2=O)cc1OC (stereo not drawn)	13.6%
Cc1ccc(S(=O)(=O)N2CCOCC2)cc1NC(=O)C(c1ccc(Cl)cc1)C(C)C (stereo not drawn)	15%
Cc1cccnc1NC(=O)c1cccc(S(=O)(=O)N2CCN(c3ccc(F)cc3)CC2)c1	7.08%
Cc1ccc(C)c(OCC(=O)NCC(C)C)c1C	8.82%
CCOC(=O)N1CCN(CC(O)COCc2ccc(OC)c(OC)c2)CC1.Cl (stereo not drawn)	14.7%
CCOC(=O)N1CCN(C(=O)CN(c2ccc(Cl)c(C(F)(F)F)c2)S(C)(=O)=O)CC1	-3.38%
CCCCN(C(=O)c1c(CC)noc1C)c1c(N)n(CCC)c(=O)[nH]c1=O	8.72%
C=CCNc1nc(Cl)nc(Nc2ccccc2)n1	9.97%
c1ccc(CSc2n[nH]c(-c3ccco3)n2)cc1	8.18%
CC(OC(=O)c1nc(Cl)ccc1Cl)C(=O)c1ccccc1 (stereo not drawn)	8.95%
CCOCCCn1c(=S)[nH]c2cc(C(=O)N3CCC(C(N)=O)CC3)ccc2c1=O	-3.34%
CS(=O)(=O)N1Cc2ccccc2CC1C(=O)O (stereo not drawn)	11.1%
CCOC(=O)C1(CCOc2ccccc2)CCN(Cc2ccc(OCC)c(CO)c2)CC1	-82.4%

Structure (SMILES)	hERG current change (%, negative = inhibition) at 1uM
CCNC(=O)NC(=O)C(C)OC(=O)CCS(=O)(=O)c1ccc(C)cc1 (stereo not drawn)	13.9%
CCOc1ccc(S(=O)(=O)NN)cc1	15.1%
CCN1CCN(C(CNC(=O)c2ccc3c(c2)OCO3)c2cccnc2)CC1 (stereo not drawn)	-3.31%
C=CCn1c(SCCC(=O)O)nc2c1c(=O)n(C)c(=O)n2C	22%
CSc1ncccc1C(=O)Nc1ccc(F)c(F)c1F	11.6%
O=C(CSc1nnc2ccc(-c3ccc(Br)cc3)nn12)NCC1CCCO1 (stereo not drawn)	11.2%
CC(C)OC(=O)CSc1nc2ncc(Cl)cc2[nH]1	16%
CCCn1c(=O)c(C(=O)NNS(=O)(=O)c2ccc(C)cc2)c(O)c2ccccc21	9.73%
CCOC(=O)NNC(=O)CCn1c2c(c3ccccc31)CCCC2	6.89%
COc1ccc(OCC(=O)NNC(=O)C(=O)N2CCCC2)cc1	2.07%
COc1ccc(-c2noc3c2-c2nc(-c4ccccc4)sc2CC3)cc1	10.3%
O=C(Oc1cc(Cl)cc(Cl)c1)c1cnc2n(c1=O)CCS2	11.3%
Cc1ccc(S(=O)(=O)N2CCSC2C(=O)O)cc1 (stereo not drawn)	7.63%
Cc1cccc(-n2nc([N+](=O)[O-])c(N3CCN(C(=O)c4ccco4)CC3)[n+]2[O-])c1	-26.4%
COC(=O)c1ccc(CSc2n[nH]c(=S)s2)o1	11.5%
COCC(C)n1c(C)cc(C(=O)COC(=O)CN=C2NS(=O)(=O)c3ccccc32)c1C (stereo not drawn)	16.7%
Cc1ccc(CNC(=O)CCC(=O)Nc2nnc(C)s2)cc1	10.9%
CC(=O)c1ccc(NC(=O)C[n+]2ccc(N(C)C)cc2)cc1.[Cl-]	8.13%
Cc1cccc(OCC(=O)Nc2ccccc2N2CCN(C)CC2)c1	2.08%
COCCCNC(=O)CN1C(=O)c2cccc3cccc1c23	12.2%
Cc1noc(C)c1COc1cccc(C(=O)Nc2ccc3c(c2)OCO3)c1	12.7%
COc1ccc(-c2noc(CCC(=O)NC3CCN(Cc4ccccc4)CC3)n2)cc1	-5.69%

— article PMC4336329 (PLoS ONE, 2015)
